Measured values published in PMC8141534 (The Journal of Biological Chemistry, 2021).

B1: Psu: bacteriophage P4 capsid protein, natural Rho antagonist, ∼42-kDa dimer (protein)
chain: MESTALQQAFDTCQNNKAAWLQRKNELAAAEQEYLRLLSGEGRNVSRLDELRNIIEVRKWQVNQAAGRYIRSHEAVQHISIRDRLNDFMQQHGTALAAALAPELMGYSELTAIARNCAIQRATDALREALLSWLAKGEKINYSAQDSDILTTIGFRPDVASVDDSREKFTPAQNMIFSRKSAQLASRQSV

Assays:
Rho, V. cholerae = format: biochemical, Vibrio cholerae; conditions: Rho 50 nM, λtR1 RNA, SD of two to three measurements
Rho, S. enterica = format: biochemical, Salmonella enterica; conditions: Psu 5 μM, Rho 50 nM, λtR1 RNA; SD of two to three measurements
Rho, M.tb = format: biochemical, Mycobacterium tuberculosis; conditions: Psu 5 μM, Rho 50 nM, poly(rC); SD of two to three measurements
Rho, X. campestris = format: biochemical, Xanthomonas campestris; conditions: Psu 5 μM, Rho 50 nM, poly(rC); SD of two to three measurements

| Molecule | Fraction of ATP Hydrolysed (%) (Rho, V. cholerae; peptide 50 μM) | Fraction of ATP Hydrolysed (%) (Rho, S. enterica) | Fraction of ATP Hydrolysed (%) (Rho, V. cholerae; Psu 5 μM) | Fraction of ATP Hydrolysed (%) (Rho, M.tb) | Fraction of ATP Hydrolysed (%) (Rho, X. campestris) |
| --- | --- | --- | --- | --- | --- |
| MHHHHHHTPAQFIFFRVKVRNWHTSVSVKAWLFWRMREDFQPDTD [peptide 33] | 14 ± 0.6 |  |  |  |  |
| MHHHHHHTPAQGMIFSVKVRTGITSVSVKAWLFWRMREDFQPDTD [peptide 16] | 17 ± 0.8 |  |  |  |  |
| B1 |  | 9 ± 0.6 | 16 ± 0.3 | 35 ± 12 | 16 ± 3 |

Where two headings read alike, the source gives them in different places. Ends that are not written are not given here.
